From the supplement of paper PMC11876631
± gives the standard deviation of the averaged measurements. Laboratory Escherichia coli strains with one amino-acid change in an essential protein, pooled on minimal glucose agar with carbenicillin or gentamicin at twice the control MIC (plus kanamycin and chloramphenicol for the plasmids), 48 h. Fold change of barcode share against drug-free plates; higher = less susceptible. Active = above 20 in both replicates (the paper's putatively resistant). '<' = one read or none on drug, '>' = one read or none on a drug-free plate. Shares are relative, so most strains fall below 1 when a few take over. Listed are strains with at least 15 reads on both drug-free plates, and hits; most hits rest on fewer reference reads. Replicate rank correlation about 0.5. Edits are read from barcodes.

B1: gltA; a variant is named by its letters at X, in order (parent)
chain: MADTKAKLTLNGDTAVELDVLKGTLGQDVIDIRTLGSKGVFTFDPGFTSTASCESKITFIDGDEGILLHRGFPIDQLATDSNYLEVCYILLNGEKPTQEQYDEFKTTVTRHTMIHEQXTRLXHAFRRDSHPMAVMCGITGALAAFYHDSLDVNNPRHREIAAFRLLSKMPTMAAMCYKYSIGQPFVYPRNDLSYAGNFLNXMFSTPCEPYEVNPILERAMDRILILHADHEQNASTSTVRTAGSSGANPFACIAAGIASLWGPAHGGANEAALKMLEEISSVKHIPEFVRRAKDKNDSFRLMGFGHRVYKNYDPRATVMRETCHEVLKELGTKDDLLEVAMELENIALNDPYFIEKKLYPNVDFYSGIILKAMGIPSSMFTVXXAMARTVGWXAHWSEMHSDGMKIARPRQLYTGYEKRDFKSDIKR

Variants of: B1
Assay: barcode share on antibiotic plates over drug-free plates; higher = less susceptible
Conditions: with Escherichia coli (laboratory strain); antibiotic: gentamicin; 2× MIC (MIC 0.45 µg/mL)
Description: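 A pool of E. coli strains, each edited to carry one amino-acid change in an essential protein, was grown for 48 h on minimal glucose agar with or without antibiotic; strain barcodes were sequenced; mean of two replicates.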

Question: With MADTKAKLTLNGDTAVELDVLKGTLGQDVIDIRTLGSKGVFTFDPGFTSTASCESKITFIDGDEGILLHRGFPIDQLATDSNYLEVCYILLNGEKPTQEQYDEFKTTVTRHTMIHEQITRLFHAFRRDSHPMAVMCGITGALAAFYHDSLDVNNPRHREIAAFRLLSKMPTMAAMCYKYSIGQPFVYPRNDLSYAGNFLNMMFSTPCEPYEVNPILERAMDRILILHADHEQNASTSTVRTAGSSGANPFACIAAGIASLWGPAHGGANEAALKMLEEISSVKHIPEFVRRAKDKNDSFRLMGFGHRVYKNYDPRATVMRETCHEVLKELGTKDDLLEVAMELENIALNDPYFIEKKLYPNVDFYSGIILKAMGIPSSMFTVIFAMARTVGWAAHWSEMHSDGMKIARPRQLYTGYEKRDFKSDIKR [IFMIFA] as the variant, how does the “fold change of barcode share” value read?
Answer: 0.0242 ± 0.021

Question: How did the “fold change of barcode share” value turn out when MADTKAKLTLNGDTAVELDVLKGTLGQDVIDIRTLGSKGVFTFDPGFTSTASCESKITFIDGDEGILLHRGFPIDQLATDSNYLEVCYILLNGEKPTQEQYDEFKTTVTRHTMIHEQITRLFHAFRRDSHPMAVMCGITGALAAFYHDSLDVNNPRHREIAAFRLLSKMPTMAAMCYKYSIGQPFVYPRNDLSYAGNFLNMMFSTPCEPYEVNPILERAMDRILILHADHEQNASTSTVRTAGSSGANPFACIAAGIASLWGPAHGGANEAALKMLEEISSVKHIPEFVRRAKDKNDSFRLMGFGHRVYKNYDPRATVMRETCHEVLKELGTKDDLLEVAMELENIALNDPYFIEKKLYPNVDFYSGIILKAMGIPSSMFTVIFAMARTVGWQAHWSEMHSDGMKIARPRQLYTGYEKRDFKSDIKR [IFMIFQ] was run?
Answer: 0.0363 ± 0.036

Question: How did the “fold change of barcode share” value turn out when MADTKAKLTLNGDTAVELDVLKGTLGQDVIDIRTLGSKGVFTFDPGFTSTASCESKITFIDGDEGILLHRGFPIDQLATDSNYLEVCYILLNGEKPTQEQYDEFKTTVTRHTMIHEQITRLFHAFRRDSHPMAVMCGITGALAAFYHDSLDVNNPRHREIAAFRLLSKMPTMAAMCYKYSIGQPFVYPRNDLSYAGNFLNMMFSTPCEPYEVNPILERAMDRILILHADHEQNASTSTVRTAGSSGANPFACIAAGIASLWGPAHGGANEAALKMLEEISSVKHIPEFVRRAKDKNDSFRLMGFGHRVYKNYDPRATVMRETCHEVLKELGTKDDLLEVAMELENIALNDPYFIEKKLYPNVDFYSGIILKAMGIPSSMFTVQFAMARTVGWIAHWSEMHSDGMKIARPRQLYTGYEKRDFKSDIKR [IFMQFI] was run?
Answer: 0.0832 ± 0.095

Question: MADTKAKLTLNGDTAVELDVLKGTLGQDVIDIRTLGSKGVFTFDPGFTSTASCESKITFIDGDEGILLHRGFPIDQLATDSNYLEVCYILLNGEKPTQEQYDEFKTTVTRHTMIHEQITRLFHAFRRDSHPMAVMCGITGALAAFYHDSLDVNNPRHREIAAFRLLSKMPTMAAMCYKYSIGQPFVYPRNDLSYAGNFLNAMFSTPCEPYEVNPILERAMDRILILHADHEQNASTSTVRTAGSSGANPFACIAAGIASLWGPAHGGANEAALKMLEEISSVKHIPEFVRRAKDKNDSFRLMGFGHRVYKNYDPRATVMRETCHEVLKELGTKDDLLEVAMELENIALNDPYFIEKKLYPNVDFYSGIILKAMGIPSSMFTVIFAMARTVGWIAHWSEMHSDGMKIARPRQLYTGYEKRDFKSDIKR [IFAIFI] was tested. Which “fold change of barcode share” value did it give?
Answer: < 0.0176

Question: Which “fold change of barcode share” value does the source give for MADTKAKLTLNGDTAVELDVLKGTLGQDVIDIRTLGSKGVFTFDPGFTSTASCESKITFIDGDEGILLHRGFPIDQLATDSNYLEVCYILLNGEKPTQEQYDEFKTTVTRHTMIHEQITRLQHAFRRDSHPMAVMCGITGALAAFYHDSLDVNNPRHREIAAFRLLSKMPTMAAMCYKYSIGQPFVYPRNDLSYAGNFLNMMFSTPCEPYEVNPILERAMDRILILHADHEQNASTSTVRTAGSSGANPFACIAAGIASLWGPAHGGANEAALKMLEEISSVKHIPEFVRRAKDKNDSFRLMGFGHRVYKNYDPRATVMRETCHEVLKELGTKDDLLEVAMELENIALNDPYFIEKKLYPNVDFYSGIILKAMGIPSSMFTVIFAMARTVGWIAHWSEMHSDGMKIARPRQLYTGYEKRDFKSDIKR [IQMIFI] here?
Answer: 0.00438 ± 0.0034

Same assay, conditions: with Escherichia coli (laboratory strain); antibiotic: carbenicillin; 2× MIC (3.1 µg/mL)

Question: With MADTKAKLTLNGDTAVELDVLKGTLGQDVIDIRTLGSKGVFTFDPGFTSTASCESKITFIDGDEGILLHRGFPIDQLATDSNYLEVCYILLNGEKPTQEQYDEFKTTVTRHTMIHEQITRLFHAFRRDSHPMAVMCGITGALAAFYHDSLDVNNPRHREIAAFRLLSKMPTMAAMCYKYSIGQPFVYPRNDLSYAGNFLNMMFSTPCEPYEVNPILERAMDRILILHADHEQNASTSTVRTAGSSGANPFACIAAGIASLWGPAHGGANEAALKMLEEISSVKHIPEFVRRAKDKNDSFRLMGFGHRVYKNYDPRATVMRETCHEVLKELGTKDDLLEVAMELENIALNDPYFIEKKLYPNVDFYSGIILKAMGIPSSMFTVQFAMARTVGWIAHWSEMHSDGMKIARPRQLYTGYEKRDFKSDIKR [IFMQFI] as the variant, how does the “fold change of barcode share” value read?
Answer: 0.675 ± 0.084

Question: How did the “fold change of barcode share” value turn out when MADTKAKLTLNGDTAVELDVLKGTLGQDVIDIRTLGSKGVFTFDPGFTSTASCESKITFIDGDEGILLHRGFPIDQLATDSNYLEVCYILLNGEKPTQEQYDEFKTTVTRHTMIHEQITRLQHAFRRDSHPMAVMCGITGALAAFYHDSLDVNNPRHREIAAFRLLSKMPTMAAMCYKYSIGQPFVYPRNDLSYAGNFLNMMFSTPCEPYEVNPILERAMDRILILHADHEQNASTSTVRTAGSSGANPFACIAAGIASLWGPAHGGANEAALKMLEEISSVKHIPEFVRRAKDKNDSFRLMGFGHRVYKNYDPRATVMRETCHEVLKELGTKDDLLEVAMELENIALNDPYFIEKKLYPNVDFYSGIILKAMGIPSSMFTVIFAMARTVGWIAHWSEMHSDGMKIARPRQLYTGYEKRDFKSDIKR [IQMIFI] was run?
Answer: 0.726 ± 0.2
